According to PMC4336329 (PLoS ONE, 2015):
The campaign covered roughly 310,000 compounds. About 2,200 (0.71%) showed an effect of 50% or more. Effects have a minus sign here. The list shows a part of the results.

These compounds were tested against human ether-à-go-go-related gene (hERG) potassium channel (human, UniProt Q12809) (assay: primary screen, population patch clamp on CHO cells stably expressing hERG).
Sequence of human ether-à-go-go-related gene (hERG) potassium channel (Q12809 whole entry, looked up): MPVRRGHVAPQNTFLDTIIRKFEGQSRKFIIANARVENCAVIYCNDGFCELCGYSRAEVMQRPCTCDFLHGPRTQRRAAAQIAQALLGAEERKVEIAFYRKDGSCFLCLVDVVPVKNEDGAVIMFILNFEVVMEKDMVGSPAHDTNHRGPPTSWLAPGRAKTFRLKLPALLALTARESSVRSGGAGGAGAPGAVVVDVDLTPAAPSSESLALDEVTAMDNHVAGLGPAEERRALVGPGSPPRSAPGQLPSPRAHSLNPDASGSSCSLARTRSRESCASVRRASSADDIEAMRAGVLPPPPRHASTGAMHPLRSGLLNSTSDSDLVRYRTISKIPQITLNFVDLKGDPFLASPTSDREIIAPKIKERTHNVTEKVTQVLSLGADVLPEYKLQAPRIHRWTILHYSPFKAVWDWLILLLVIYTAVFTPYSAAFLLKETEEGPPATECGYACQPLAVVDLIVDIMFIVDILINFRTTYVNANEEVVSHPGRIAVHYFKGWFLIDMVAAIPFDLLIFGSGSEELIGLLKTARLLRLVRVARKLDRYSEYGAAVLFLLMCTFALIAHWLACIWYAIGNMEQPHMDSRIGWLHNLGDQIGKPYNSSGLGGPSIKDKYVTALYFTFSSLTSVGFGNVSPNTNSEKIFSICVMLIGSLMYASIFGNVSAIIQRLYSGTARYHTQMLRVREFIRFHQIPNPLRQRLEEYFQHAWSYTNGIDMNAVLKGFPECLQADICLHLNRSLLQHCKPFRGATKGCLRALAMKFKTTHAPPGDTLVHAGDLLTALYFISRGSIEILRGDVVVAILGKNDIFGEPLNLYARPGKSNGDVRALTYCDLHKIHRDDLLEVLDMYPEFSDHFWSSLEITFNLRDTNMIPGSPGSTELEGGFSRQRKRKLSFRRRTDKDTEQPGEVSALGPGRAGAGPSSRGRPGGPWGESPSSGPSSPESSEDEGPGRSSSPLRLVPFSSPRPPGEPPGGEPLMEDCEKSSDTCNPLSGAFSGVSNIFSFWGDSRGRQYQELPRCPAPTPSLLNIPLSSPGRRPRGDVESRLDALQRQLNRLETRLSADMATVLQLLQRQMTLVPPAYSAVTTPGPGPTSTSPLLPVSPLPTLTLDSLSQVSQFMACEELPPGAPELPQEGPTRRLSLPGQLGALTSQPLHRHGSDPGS

Row | Structure (SMILES) | hERG current change (%, negative = inhibition) at 1uM [%]
1 | COc1ccc(C(=O)Nc2nc3nccc(-c4ccccc4)n3n2)cc1 | 1.32
2 | COc1ccc(OC)c(C2Nc3ccccc3NC3=C2C(=O)CC(C)(C)C3)c1 (centres unmarked) | 13.5
3 | Cc1cccc(N(C)C(=O)CCS(=O)(=O)c2cc3c(cc2Cl)NC(=O)CO3)c1 | -15.3
4 | C[N+]1(CC(=O)OCCCc2ccccc2)CCOCC1.[I-] | 6.97
5 | COC(=O)CSc1nnc(CSc2nc(C)cc(C)n2)o1 | 14
6 | Cc1ccc(OCCC(=O)NNC(=O)c2nn(C)c(=O)c3ccccc23)cc1 | 0.0771
7 | CC(C)(C)S(=O)c1cccs1 (centres unmarked) | 13.3
8 | CCCc1nnc(NC(=O)c2cccnc2)s1 | 12.2
9 | COc1ccccc1NC(=S)N/N=C/c1ccc(O)cc1 | 7.59
10 | CCC(C)c1ccccc1N1CC(C(=O)NCCCn2nc(C)cc2C)CC1=O (centres unmarked) | 10.6
11 | CCOC(=O)c1c(C)n(C)c2ccc(OCC(O)Cn3nc(C)cc3C)cc12 (centres unmarked) | 13
12 | O=C(Nc1cccnc1)/C(N=Nc1cccnc1)=C(\O)c1ccccc1 | -7.7
13 | COc1cccc(-c2nc(CS(=O)(=O)CC(=O)NC3CCCC3)c(C)o2)c1 | 10.5
14 | Cc1cccc(N2CCN(C(=O)c3ccc(N4CCCC4=O)cc3)CC2)c1C | -9.62
15 | Cc1nc(N2C(=O)C(=O)/C(=C(/O)c3ccccc3)C2c2ccco2)sc1C (centres unmarked) | 8.66
16 | COc1cccc(/C=N\n2c(C)nnc2C)c1OC | -0.171
17 | NC(=O)CC(NC(=O)Cc1cccc2ccccc12)c1ccc(NCc2ccc(F)cc2)c([N+](=O)[O-])c1 (centres unmarked) | -4.48
18 | Cc1ccc(NC(=O)COc2ncnc3ccccc23)cc1S(=O)(=O)N1CCOCC1 | 6.13
19 | Oc1ccc(O)cc1 | 15.8

Row | Structure (SMILES) | hERG current change (%, negative = inhibition) at 1uM [%]
20 | O=C(O)c1cc(-c2c[nH]c3ccccc23)nc2ccc3ccccc3c12 | -1.42
21 | O=C(O)CC1(Cc2nc(-c3cccs3)no2)CCCC1 | 9.46
22 | COc1ccc(CN2CCC(n3nccc3NC(=O)CCOc3ccccc3)CC2)cc1C | -16.2
23 | O=C(c1ccccc1)n1c(=O)c(F)cn(COCCBr)c1=O | 12.4
24 | CCn1c(CNC(=O)c2ccccc2F)cc2ccccc21 | 13.6
25 | COc1ccc(-c2c(C)nc3c(-c4ccccn4)cnn3c2N)cc1 | 11.1
26 | O=C(CCN1CCCC1=O)NC1CCCc2c1cnn2-c1ccc(F)cc1F (centres unmarked) | 1.67
27 | CSc1cccc(NC(=O)CN2C(=O)COc3ccc(S(=O)(=O)N4CCOCC4)cc32)c1 | 15.4
28 | COC(=O)C1=C(C(=O)OC)SC2(S1)C(C(=O)OC)=C(C(=O)OC)SC1=C2c2cc(C)cc(C)c2NC1(C)C | 19.8
29 | CN(C)C(Cc1ccccc1)C(=O)c1ccccc1.Cl (centres unmarked) | 7.28
30 | CCOC(=O)CSc1nc2ccccc2c(=O)n1-c1ccc(C)cn1 | 12.3
31 | CC/C(=N\NC(=O)c1ccncc1)C12CC3CC(CC(C3)C1)C2 | 11.3
32 | CC(Sc1nnc(-c2ccc(Cl)cc2Cl)n1Cc1ccccc1)C(=O)Nc1nccs1 (centres unmarked) | 5.78
33 | N#Cc1c(-c2c(Cl)cccc2Cl)noc1/C=C/Nc1ccc(C(=O)O)cc1 | 3.87
34 | Cc1ccc(NC(=O)C2CCCC2)c(Br)c1 | 22.1
35 | Cc1noc(C)c1S(=O)(=O)Nc1ccc(C(=O)Nc2ccc(OC(F)(F)F)cc2)cc1 | 9.96
36 | COc1cccc(OCc2cc(C(=O)N3CCN(C(C)=O)CC3)no2)c1 | 7.61
37 | CCCCCCC1CCC(C(=O)NC(CCSC)C(=O)NC(C(=O)OC)C(C)C)CC1 (centres unmarked) | 6.91
38 | CCn1c(SC)nnc1-c1ccc(S(=O)(=O)N2CCCCC2)cc1 | -1.45

Row | Structure (SMILES) | hERG current change (%, negative = inhibition) at 1uM [%]
39 | O=C(O)CCc1nc(-c2ccccc2)no1 | 17
40 | Clc1ccc(Cl)c(Oc2ccc(Oc3nc(Cl)ccc3Cl)cc2)n1 | 18.3
41 | CCOc1ccc(CCNC(=O)COC(=O)COc2ccc(C(=O)CC)cc2)cc1OCC | 13.4
42 | CC(/C=C/c1ccccc1)=N/NC(=O)c1cccc(Br)c1 | 12.6
43 | CCN1CCN(Cc2c(O)ccc3c2O/C(=C\C=C\c2ccccc2OC)C3=O)CC1 | -4.56
44 | CCc1ccc(NC(=O)N(Cc2cccnc2)Cc2ccco2)cc1 | -22.4
45 | COc1ccc(Oc2coc3cc(OC(=O)N4CCOCC4)ccc3c2=O)cc1 | -11.9
46 | CN(C)S(=O)(=O)c1cccc(NC(=O)COC(=O)CNC(=O)c2ccccc2F)c1 | 4.65
47 | CC(Oc1cccc(Cl)c1)C(=O)Nc1ccc(S(=O)(=O)NC2=NCCCCC2)cc1 (centres unmarked) | 0.377
48 | Cc1ccc(OCC(=O)NC(C)c2ccccc2)c([N+](=O)[O-])n1 (centres unmarked) | 9.95
49 | COCC(=O)N1CCC(Oc2ccc(C(=O)NCCCn3cccn3)cc2)CC1 | 10.6
50 | C=C1C(C(=O)Nc2ccccc2)C1C(=O)Nc1ccccc1 (centres unmarked) | -4.78
51 | COCCn1c(SCC(=O)Nc2ccc3[nH]c(=O)[nH]c3c2)nc2ccccc2c1=O | 10.7
52 | COc1cc(C(=O)N[C@@H](C)C(=O)NCc2ccco2)cc(OC)c1OC | 16.3
53 | COc1ccc(OC)c(S(=O)(=O)N2CCCc3ccccc32)c1 | 3.74
54 | O=C(O)COc1ccccc1/C=N/NC(=O)CSc1nc2ccccc2n1Cc1ccccc1Cl | 6.39
55 | Clc1ccc2c(N3CCNCC3)ccnc2c1 | -15.4
56 | COc1ccc(CCNC(=S)NC(=O)c2cccc([N+](=O)[O-])c2)cc1OC | 2.02
